# In publication PMC9911399, “Two distinct binding modes provide the RNA-binding protein RbFox with extraordinary sequence specificity”:
# Numbering of substitutions follows the chain as printed; changes in the protein carry UniProt numbers. The list shows a part of the results.
# B1: UUAAUAU (DNA:RNA)
# RNA: GGGAGACCGGAAUUCAGAUUGUCCUUAAUAUUUAAAUCCCGUCGUAGCCACCA
# DNA 1: CAATCTGAATTCCGGTCTCCC
# DNA 2: TGGTGGCTACGACGGGATT
# B2: UCGGGUA (DNA:RNA)
# RNA: B1 RNA with U26C, A27G, A28G, U29G, A30U, U31A
# DNA 1: CAATCTGAATTCCGGTCTCCC
# DNA 2: TGGTGGCTACGACGGGATT
# B3: UCCGCUA (DNA:RNA)
# RNA: B1 RNA with U26C, A27C, A28G, U29C, A30U, U31A
# DNA 1: CAATCTGAATTCCGGTCTCCC
# DNA 2: TGGTGGCTACGACGGGATT
# B4: CUUGGCU (DNA:RNA)
# RNA: B1 RNA with U25C, A27U, A28G, U29G, A30C
# DNA 1: CAATCTGAATTCCGGTCTCCC
# DNA 2: TGGTGGCTACGACGGGATT
# B5: GGGAAGA (DNA:RNA)
# RNA: B1 RNA with U25G, U26G, A27G, U29A, A30G, U31A
# DNA 1: CAATCTGAATTCCGGTCTCCC
# DNA 2: TGGTGGCTACGACGGGATT
# B6: UUCAUAA (DNA:RNA)
# RNA: B1 RNA with A27C, U31A
# DNA 1: CAATCTGAATTCCGGTCTCCC
# DNA 2: TGGTGGCTACGACGGGATT
# B7: AUCGAUU (DNA:RNA)
# RNA: B1 RNA with U25A, A27C, A28G, U29A, A30U
# DNA 1: CAATCTGAATTCCGGTCTCCC
# DNA 2: TGGTGGCTACGACGGGATT
# B8: CAGGAGA (DNA:RNA)
# RNA: GGGAGACCGGAAUUCAGAUUGUCCCAGGAGAUUAAAUCCCGUCGUAGCCACCA
# DNA 1: CAATCTGAATTCCGGTCTCCC
# DNA 2: TGGTGGCTACGACGGGATT
# B9: UUACUUU (DNA:RNA)
# RNA: B1 RNA with A28C, A30U
# DNA 1: CAATCTGAATTCCGGTCTCCC
# DNA 2: TGGTGGCTACGACGGGATT
# B10: AAUUAUC (DNA:RNA)
# RNA: B8 RNA with C25A, G27U, G28U, G30U, A31C
# DNA 1: CAATCTGAATTCCGGTCTCCC
# DNA 2: TGGTGGCTACGACGGGATT
# B11: CACCGUA (DNA:RNA)
# RNA: B8 RNA with G27C, G28C, A29G, G30U
# DNA 1: CAATCTGAATTCCGGTCTCCC
# DNA 2: TGGTGGCTACGACGGGATT
# B12: CCACGCC (DNA:RNA)
# RNA: B8 RNA with A26C, G27A, G28C, A29G, G30C, A31C
# DNA 1: CAATCTGAATTCCGGTCTCCC
# DNA 2: TGGTGGCTACGACGGGATT
# B13: GACGAUA (DNA:RNA)
# RNA: B8 RNA with C25G, G27C, G30U
# DNA 1: CAATCTGAATTCCGGTCTCCC
# DNA 2: TGGTGGCTACGACGGGATT
# B14: AGUGAAG (DNA:RNA)
# RNA: B8 RNA with C25A, A26G, G27U, G30A, A31G
# DNA 1: CAATCTGAATTCCGGTCTCCC
# DNA 2: TGGTGGCTACGACGGGATT
# B15: GCCGUCA (DNA:RNA)
# RNA: B8 RNA with C25G, A26C, G27C, A29U, G30C
# DNA 1: CAATCTGAATTCCGGTCTCCC
# DNA 2: TGGTGGCTACGACGGGATT
# B16: AAGCAAU (DNA:RNA)
# RNA: B8 RNA with C25A, G28C, G30A, A31U
# DNA 1: CAATCTGAATTCCGGTCTCCC
# DNA 2: TGGTGGCTACGACGGGATT
# B17: GGCAACC (DNA:RNA)
# RNA: B8 RNA with C25G, A26G, G27C, G28A, G30C, A31C
# DNA 1: CAATCTGAATTCCGGTCTCCC
# DNA 2: TGGTGGCTACGACGGGATT
# B18: CAAUGAA (DNA:RNA)
# RNA: B8 RNA with G27A, G28U, A29G, G30A
# DNA 1: CAATCTGAATTCCGGTCTCCC
# DNA 2: TGGTGGCTACGACGGGATT
# B19: CCUAGAA (DNA:RNA)
# RNA: B8 RNA with A26C, G27U, G28A, A29G, G30A
# DNA 1: CAATCTGAATTCCGGTCTCCC
# DNA 2: TGGTGGCTACGACGGGATT
# B20: GGCGUAU (DNA:RNA)
# RNA: B1 RNA with U25G, U26G, A27C, A28G
# DNA 1: CAATCTGAATTCCGGTCTCCC
# DNA 2: TGGTGGCTACGACGGGATT
# Target: T1, RBFOX1 RRM (Homo sapiens, UniProt Q9NWB1 109-208)
# T1 sequence: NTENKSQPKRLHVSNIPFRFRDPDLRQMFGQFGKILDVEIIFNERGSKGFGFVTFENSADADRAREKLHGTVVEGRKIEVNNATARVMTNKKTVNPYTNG
# Assay: EMSA; HiTS-Eq, 1 nM pool, 10 min; buffer printed only for the single-RNA assays: 10 mM Tris pH 7.5, 150 mM NaCl, 3.4 mM EDTA, 0.001% NP-40, 30 C
# Conditions: tags: His6 N-terminal (pET28a); label: 5' 32P
# Outline: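 Purified RbFox RRM, wild type or mutant, was incubated for 10 min in 50 µL with 1 nM of a 5′-radiolabelled RNA pool carrying 7 randomized nucleotides, whose flanks were annealed to DNA oligonucleotides, over a series of increasing protein concentrations. Unbound RNA was resolved on 8% native PAGE, cut out, reverse-transcribed, barcoded by PCR and sequenced on an Illumina HiSeq 2500. Relative association constants were derived from changes in read counts for each RNA species versus the control reaction and normalised to the cognate motif.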
row,Binder,binding signal
1,B1,0.0028 KA relative to UGCAUGU
2,B2,0.0153 KA relative to UGCAUGU
3,B3,0.00844 KA relative to UGCAUGU
4,B4,0.0214 KA relative to UGCAUGU
5,B5,0.0349 KA relative to UGCAUGU
6,B6,0.00178 KA relative to UGCAUGU
7,B7,0.00466 KA relative to UGCAUGU
8,B8,0.0109 KA relative to UGCAUGU
9,B9,0.0048 KA relative to UGCAUGU
10,B10,0.00371 KA relative to UGCAUGU
11,B11,0.00128 KA relative to UGCAUGU
12,B12,0.000433 KA relative to UGCAUGU
13,B13,0.0145 KA relative to UGCAUGU
14,B14,0.0118 KA relative to UGCAUGU
15,B15,0.0103 KA relative to UGCAUGU
16,B16,0.00394 KA relative to UGCAUGU
17,B17,0.00716 KA relative to UGCAUGU
18,B18,0.00438 KA relative to UGCAUGU
19,B19,0.00632 KA relative to UGCAUGU
20,B20,0.00921 KA relative to UGCAUGU
